PubChem BioAssay AID588579 (National Center for Advancing Translational Sciences (NCATS), 2011)
Where “and” joins values, the source holds several entries; their conditions need not be identical. Identical values can stand only once. Screen size: about 400,000 compounds; about 2,200 (0.55%) were called active. Inconclusive results (about 1%) are left out. The call rests on the fitted dose curve; in most records, active means well fitted inhibition curve with a large enough effect; inconclusive means small, poorly fitted or top-dose-only effect, or another doubt; inactive means no such curve, though single readings can be large or run the other way. The list shows a part of the results, in another mix than the full data. Where a structure was tested more than once in an assay, its records may differ in their call.

Biological target: DNA polymerase kappa (Homo sapiens) (UniProt Q9UBT6)
Assay: qHTS for Inhibitors of Polymerase Kappa
Conditions: purified Pol kappa, fluorescent DNA synthesis assay, 10 min; series mostly up to 107 µM; activity, negative = inhibition: at the top concentration
Outline: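 Pol kappa 10 nM + cpd, 15 min RT; start w/ substrate 50 nM final; fluorescence kinetic read, 0 and 10 min. Neg ctrl: buffer, no enzyme.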
On the % scale 0 is the no-effect control and ±100 the full control effect; potency means the concentration at half of the fitted maximal effect.

Chain of UniProt Q9UBT6 (Q9UBT6 whole entry, looked up): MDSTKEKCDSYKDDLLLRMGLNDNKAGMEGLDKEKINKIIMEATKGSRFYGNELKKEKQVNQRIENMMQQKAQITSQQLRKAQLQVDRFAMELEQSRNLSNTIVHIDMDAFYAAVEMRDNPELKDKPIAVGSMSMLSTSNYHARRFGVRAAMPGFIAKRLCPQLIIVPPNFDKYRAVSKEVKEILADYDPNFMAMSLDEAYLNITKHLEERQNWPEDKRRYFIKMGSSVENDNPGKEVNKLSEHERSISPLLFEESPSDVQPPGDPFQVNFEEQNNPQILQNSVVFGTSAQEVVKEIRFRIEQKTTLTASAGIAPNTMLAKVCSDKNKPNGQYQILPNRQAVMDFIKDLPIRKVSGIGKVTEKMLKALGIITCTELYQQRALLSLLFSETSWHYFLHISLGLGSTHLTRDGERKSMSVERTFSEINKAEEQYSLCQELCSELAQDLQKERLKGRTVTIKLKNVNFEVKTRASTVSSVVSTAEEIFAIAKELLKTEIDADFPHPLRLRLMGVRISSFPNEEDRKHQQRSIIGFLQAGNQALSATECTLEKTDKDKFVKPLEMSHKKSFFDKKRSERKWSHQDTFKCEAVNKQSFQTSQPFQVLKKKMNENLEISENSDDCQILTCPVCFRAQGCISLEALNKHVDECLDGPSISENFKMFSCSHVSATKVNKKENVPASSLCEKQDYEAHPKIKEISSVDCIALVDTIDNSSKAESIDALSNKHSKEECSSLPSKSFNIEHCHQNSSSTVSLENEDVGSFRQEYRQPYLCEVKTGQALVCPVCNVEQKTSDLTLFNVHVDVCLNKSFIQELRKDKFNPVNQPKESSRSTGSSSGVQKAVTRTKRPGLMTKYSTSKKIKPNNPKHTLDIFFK

Row | SMILES | Potency | activity, negative = inhibition
1 | O=C(O)c1cccc(-n2cccc2/C=N/O)c1 | active: 35.5 µM | 
2 | CC(C)C[C@H](NC(=O)[C@H](CCCCN)NC(=O)[C@H](CCC(N)=O)NC(=O)[C@H](Cc1cnc[nH]1)NC(=O)[C@H](Cc1cnc[nH]1)NC(=O)[C@@H](N)C(C)C)C(=O)N[C@H](C(=O)N[C@@H](Cc1ccccc1)C(=O)N[C@@H](Cc1ccccc1)C(=O)N[C@@H](C)C(=O)N[C@@H](CCC(=O)O)C(=O)N[C@@H](CC(=O)O)C(=O)N[C@H](C(=O)NCC(=O)N[C@@H](CO)C(=O)N[C@@H](CC(N)=O)C(=O)N[C@@H](CCCCN)C(=O)O)C(C)C)C(C)C |  | inactive: 19.2% [at 60.1 µM]
3 | O=C(OC[C@H]1O[C@@H](OC(=O)c2cc(O)c(O)c(OC(=O)c3cc(O)c(O)c(O)c3)c2)[C@H](OC(=O)c2cc(O)c(O)c(OC(=O)c3cc(O)c(O)c(O)c3)c2)[C@@H](OC(=O)c2cc(O)c(O)c(OC(=O)c3cc(O)c(O)c(O)c3)c2)[C@@H]1OC(=O)c1cc(O)c(O)c(OC(=O)c2cc(O)c(O)c(O)c2)c1)c1cc(O)c(O)c(OC(=O)c2cc(O)c(O)c(O)c2)c1 |  | inactive: -99.1%
4 | CCCCC(=O)O[C@H]1CC[C@H]2[C@@H]3CCc4cc(O)ccc4[C@H]3CC[C@]12C |  | inactive: 0%
5 | OCCOCCN1CCN([C@@H](c2ccccc2)c2ccc(Cl)cc2)CC1 |  | inactive: 0.0815% [at 12 µM]
6 | CC1(C)S[C@@H]2[C@H](NC(=O)[C@H](N)c3ccc(O)cc3)C(=O)N2[C@H]1C(=O)O | active: 50.1 µM | 
7 | O=c1cc(-c2ccccc2O)oc2c(O)c(O)ccc12 | active: 0.891 µM | 
8 | NC(=O)[C@H]1CCCN1C(=O)[C@H](Cc1cnc[nH]1)NC(=O)[C@@H]1CCC(=O)N1 |  | inactive: -15.1% [at 12 µM]
9 | O=C1CC(c2ccco2)CC2=C1C(c1ccccc1)n1nc(C(F)(F)F)nc1N2 (configuration not stated) |  | inactive: -8.5%
10 | Cc1ccc(-c2csc(NC(=O)/C=C/c3ccco3)c2C(=O)O)cc1 | active: 50.1 µM | 
11 | COc1ccc(CNC(=O)Cn2c(=O)cc(C)c3c(C)nn(-c4cccc(Cl)c4C)c32)cc1 |  | inactive: 23.2%
12 | O=C(O)c1cc(O)c2c(c1)[C@H]([C@H]1c3cc(C(=O)O)cc(O)c3C(=O)c3c(O[C@@H]4O[C@H](CO)[C@@H](O)[C@H](O)[C@H]4O)cccc31)c1cccc(OC3O[C@H](CO)[C@@H](O)[C@H](O)[C@H]3O)c1C2=O (some centres not stated) | active: 0.708 µM | 
13 | COc1ccc([C@@H]2CC(=O)c3c(O)cc(O[C@@H]4OC(CO[C@@H]5OC(C)[C@H](O)[C@@H](O)[C@H]5O)[C@@H](O)[C@H](O)[C@H]4O)cc3O2)cc1O (some centres not stated) |  | inactive: 2.26%
14 | OCC1=C[C@@H](O)C2C=CO[C@@H](O[C@@H]3O[C@H](CO)[C@@H](O)[C@H](O)[C@H]3O)C12 (some centres not stated) |  | inactive: 7.63%
15 | CO/N=C(\C(=O)N[C@@H]1C(=O)N2C(C(=O)O)=C(COC(N)=O)CS[C@@H]12)c1ccco1 |  | inactive: -4.73% [at 12 µM]
16 | O=c1cc(-c2ccc(O)cc2)oc2cc(O)c([C@@H]3O[C@H](CO)[C@@H](O)[C@H](O)[C@H]3O)c(O)c12 | inactive | 
17 | Cc1onc(-c2c(Cl)cccc2Cl)c1C(=O)N[C@@H]1C(=O)N2[C@@H]1SC(C)(C)[C@@H]2C(=O)O | inactive | 
18 | C=C1c2cccc(OC)c2O[C@H](C(=O)OCC)[C@@H]1CC(CC)CCCC (some centres not stated) |  | inactive: -12.2%
19 | Cc1cc(C(C)(C)C)c(O)c(C)c1CC1=NCCN1 | inactive | 
20 | CCOC(=O)[C@@H]1[C@H]2COc3ccccc3[C@@H]2N2C(=O)N(c3ccc(F)cc3)C(=O)[C@@]12C |  | inactive: 11.7%
21 | COC(=O)CSc1ccc2nnc(CCNS(=O)(=O)c3ccccc3)n2n1 |  | inactive: -4.56%
22 | COc1cc2cc(Oc3ccc4ccc(=O)oc4c3)c(=O)oc2cc1O |  | inactive: -7.58%
23 | COc1ccc([C@@H]2CC(=O)c3c(O)cc(O[C@@H]4O[C@H](CO[C@@H]5O[C@@H](C)[C@H](O)[C@@H](O)[C@H]5O)[C@@H](O)[C@H](O)[C@H]4O)cc3O2)cc1O |  | inactive: -27.2%
24 | O=C(/C=C/c1ccc(Br)o1)OCc1nc2ccsc2c(=O)[nH]1 | active: 10 µM | 

Row | SMILES | Potency | activity, negative = inhibition
25 | CSc1ccc2c(c1)C(N1CCN(C)CC1)Cc1ccccc1S2 (configuration not stated) | inactive | 
26 | COC(=O)[C@H]1[C@H]2C[C@H]3c4[nH]c5ccccc5c4CCN3C[C@@H]2CC[C@@H]1O | inactive | 
27 | C[C@@]12CC[C@@H]3c4ccc(O)cc4CC[C@H]3[C@H]1CC[C@H]2O |  | inactive: 1.66% [at 12 µM]
28 | CC[C@@]1([C@@H]2O[C@@H]([C@H]3O[C@@](O)(CO)[C@H](C)C[C@@H]3C)C[C@@H]2C)CC[C@@H]([C@]2(C)CCC3(C[C@H](O)[C@@H](C)[C@@H]([C@@H](C)[C@@H](OC)[C@H](C)C(=O)O)O3)O2)O1 (some centres not stated) |  | inactive: 15.2% [at 60.1 µM]
29 | CC(C)CCCC(C)C1CCC2C3CC=C4CC(O)CC[C@@]4(C)C3CC[C@@]12C (some centres not stated) |  | inactive: -6.35% [at 60.1 µM]
30 | CC(C)C[C@H](NC(=O)C1OC1C(=O)O)C(=O)NCCCCN=C(N)N (some centres not stated) |  | inactive: -3.79% [at 60.1 µM]
31 | CC(=O)c1c(O)c(C)c(O)c2c1OC1=CC(=O)C(C(C)=O)C(=O)[C@@]12C (some centres not stated) | inactive | 
32 | Cc1nnc(SCC2=C(C(=O)O)N3C(=O)C(NC(=O)COc4ccccc4)C3SC2)s1 (configuration not stated) | active: 79.4 µM | 
33 | C=C[C@@]1(C)CC(=O)[C@]2(O)[C@@]3(C)[C@@H](O)CCC(C)(C)[C@@H]3[C@H](O)[C@H](OC(C)=O)[C@@]2(C)O1 | inactive | 
34 | Cc1cccc(-c2n[nH]c(=S)n2/N=C/C=C/c2ccco2)c1 | active: 44.7 µM | 
35 | CN(C)c1ccc(/C=C/c2ccc3c4ccccc4ccc3[n+]2-c2ccccc2)cc1 |  | inactive: -6.22%
36 | CCCCC(CC)COC(=O)C(C#N)=C(c1ccccc1)c1ccccc1 (configuration not stated) |  | inactive: -22.9%
37 | O=C1C=CC(=O)N1c1cccc2cccnc12 | active: 89.1 µM | 
38 | CCCCCCCCCCCCCCCCCCc1ccc(C(=O)/C=C\C(=O)O)cc1 | active: 12.6 µM | 
39 | O=C(Cc1coc2cc3c(cc12)CCC3)OCc1cc(=O)n2c(n1)sc1ccccc12 | active: 89.1 µM | 
40 | O=C1CN(/N=C/c2ccc([N+](=O)[O-])o2)C(=O)N1 | inactive | 
41 | NC(=NCCCCCCN=C(N)/N=C(\N)Nc1ccc(Cl)cc1)/N=C(\N)Nc1ccc(Cl)cc1 | inactive | 
42 | CC(C)c1ccc(Nc2nnc(SCC(=O)c3nnc(-c4ccccc4)o3)s2)cc1 | active: 79.4 µM | 
43 | COc1c(-c2ccccc2)oc2c(ccc3occc32)c1=O |  | inactive: -8.33%
44 | CCOc1ccc(CCNC(=O)c2nc(-c3cccc(F)c3)n3c2CCCCC3)cc1OCC | active: 89.1 µM | 
45 | CC(C)[C@H]1c2ccc(F)cc2CC[C@@]1(CCN(C)CCCc1nc2ccccc2[nH]1)OC(=O)C1CC1 |  | inactive: -3.21%
46 | O=c1c(O[C@@H]2O[C@H](CO)C(O)C2O)c(-c2ccc(O)c(O)c2)oc2cc(O)cc(O)c12 (some centres not stated) | active: 25.1 µM | 
47 | CC1(O)CCC(C(C)(C)O)CC1 (configuration not stated) | inactive | 
48 | COc1cc2oc(=O)cc(-c3cccc(-c4ccc(C(F)(F)F)cc4)c3)c2c(OC)c1OC |  | inactive: 2.78%

Row | SMILES | Potency | activity, negative = inhibition
49 | CC(C)c1c(O)ccc2c1CC[C@H]1C(C)(C)CCC[C@]21C |  | inactive: -6.09%
50 | CCCC1O[C@@H]2C[C@H]3[C@@H]4CCC5=CC(=O)C=C[C@]5(C)[C@H]4[C@@H](O)C[C@]3(C)[C@]2(C(=O)CO)O1 (some centres not stated) | inactive | 
51 | CC(C(=O)O)c1cccc(C(=O)c2ccccc2)c1 (configuration not stated) | inactive | 
52 | O=C1CSC(=S)N1/N=C/c1ccc(O)c([N+](=O)[O-])c1 | active: 28.2 µM | 
53 | NC(=O)CSc1oc(-c2ccco2)nc1S(=O)(=O)c1ccc(Br)cc1 |  | inactive: -19.7%
54 | O=S(=O)(c1ccccc1)N(CC(F)(F)F)c1ccc(C(O)(C(F)(F)F)C(F)(F)F)cc1 |  | inactive: -17.1% [at 60.1 µM]
55 | NC(=O)C1CCCN1C(=O)C(Cc1cnc[nH]1)NC(=O)C1CCC(=O)N1 (configuration not stated) |  | inactive: 11.6% [at 60.1 µM]
56 | Cc1cccc(C(=O)Nc2cc3c(cc2N2CCCCC2)n(C)c(=O)c(=O)n3C)c1 |  | inactive: 28.5%
57 | Cc1nc(N=Nc2cc([N+](=O)[O-])ccc2Cl)c(COP(=O)(O)O)c(C=O)c1O | active: 26.7 µM | 
58 | COc1ccc(C(=O)CC(=O)c2ccc(C(C)(C)C)cc2)cc1 |  | inactive: 3.94%
59 | O=C(c1ccc2c(c1)OCO2)N1CCCCC1 | inactive | 
60 | COc1ccc(C(=O)c2ccccc2)c(O)c1 | inactive | 
61 | CC(C)NCC(O)c1ccc(O)c(O)c1 (configuration not stated) | inactive | 
62 | COc1cc(/C=N/N2C(=O)CSC2=S)ccc1O | active: 79.4 µM | 
63 | NC[C@@H](O)c1ccc(O)c(O)c1 | active: 3.16 µM and active: 11.9 µM | 
64 | COc1c(O)cc2oc(-c3ccc(O)cc3)cc(=O)c2c1O |  | inactive: -10.9%
65 | C/C(N)=C(/C#N)C(=O)CSc1nnc(SCc2ccc(Cl)cc2)s1 |  | inactive: -7.99%
66 | O=c1cc(-c2ccc(O)cc2)oc2cc(O[C@@H]3O[C@H](CO)[C@H](O)[C@H](O)[C@H]3O)cc(O)c12 |  | inactive: 17.3%
67 | CCCCCCCC/C=C\CCCCCCCC(=O)NCCO | inactive | 
68 | Nc1nc2c(c(=O)[nH]1)N(C=O)[C@H](CNc1ccc(C(=O)N[C@@H](CCC(=O)O)C(=O)O)cc1)CN2 |  | inactive: 1.5% [at 19.4 µM]
69 | CCCc1cc(=O)oc2cc(C)c(CN3CCCC3)c(O)c12 | active: 20 µM | 
70 | CCC[C@@H]1O[C@@H]2C[C@@H]3[C@H]4CCC5=CC(=O)C=C[C@@]5(C)[C@H]4[C@H](O)C[C@@]3(C)[C@@]2(C(=O)CO)O1 |  | inactive: -2.28% [at 19.4 µM]
71 | COc1cccc2c1CCCC2CCCN1CCN(C2CCCCC2)CC1 (configuration not stated) | inactive | 
72 | CC[C@H](C)[C@H](NC(=O)[C@H](CCCNC(=N)N)NC(=O)[C@@H]1CCCN1C(=O)[C@H](Cc1ccccc1)NC(=O)[C@H](Cc1cnc[nH]1)NC(=O)[C@H](CCCNC(=N)N)NC(=O)[C@@H](NC(=O)[C@H](C)NC(=O)[C@H](CCC(=O)O)NC(=O)[C@H](CC(N)=O)NC(=O)[C@@H](N)CCCCN)C(C)C)C(=O)N[C@@H](Cc1c[nH]c2ccccc12)C(=O)N[C@@H](CC(C)C)C(=O)O |  | inactive: 18.1% [at 60.1 µM]
